Measured values published in PubChem BioAssay AID1508599 (Sanford-Burnham Center for Chemical Genomics, 2020).
A number of entries come with more than one value. The list is limited to them. An entry can have further records. Values that stand side by side are repeated measurements (runs, samples, wells, individuals or studies). What stands in brackets tells the records apart. The letters are not those of the source and start again with each entry.

Biological target: Baculoviral IAP repeat-containing protein 2 (Homo sapiens) (UniProt Q13490)
UniProt Q13490, sequence (Q13490 whole entry, looked up): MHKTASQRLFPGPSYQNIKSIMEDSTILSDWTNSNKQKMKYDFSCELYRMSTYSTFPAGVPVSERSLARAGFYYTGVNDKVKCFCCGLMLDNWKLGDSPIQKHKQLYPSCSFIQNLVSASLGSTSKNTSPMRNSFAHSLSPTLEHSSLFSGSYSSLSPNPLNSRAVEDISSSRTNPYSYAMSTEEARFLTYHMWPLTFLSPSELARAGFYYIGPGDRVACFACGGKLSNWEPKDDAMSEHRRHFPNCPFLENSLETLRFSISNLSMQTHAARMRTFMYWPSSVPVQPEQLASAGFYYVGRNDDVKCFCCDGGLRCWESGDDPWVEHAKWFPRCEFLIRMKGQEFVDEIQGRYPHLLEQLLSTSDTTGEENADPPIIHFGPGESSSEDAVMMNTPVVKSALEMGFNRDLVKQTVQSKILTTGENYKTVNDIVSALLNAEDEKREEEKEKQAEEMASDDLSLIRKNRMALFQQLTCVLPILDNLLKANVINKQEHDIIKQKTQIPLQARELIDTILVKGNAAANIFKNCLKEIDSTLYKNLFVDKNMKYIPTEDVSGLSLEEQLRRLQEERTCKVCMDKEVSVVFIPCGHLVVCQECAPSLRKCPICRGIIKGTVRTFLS
Experiment: cIAP1 BIR3–SMAC binding inhibitors, SAR follow-up, biochemical (AID 1508599)
Settings: cIAP1 BIR3 / rhodamine-SMAC peptide fluorescence polarization

IC50: 8.92 µM [sample A] and 114 nM [sample B]
SMILES: CN[C@@H](C)C(=O)N[C@H]1Cc2ccc(O)cc2[C@H]2CC(C)(C)C(C(=O)N[C@@H]3CCCc4ccccc43)N2C1=O (stereo partly specified)
